Assay results published in article PMC4336329 (PLoS ONE, 2015).
About 2,200 (0.71%) of roughly 310,000 compounds showed an effect of 50% or more. The effect is printed as a negative number. The list shows a part of the results.

molecular target: human ether-à-go-go-related gene (hERG) potassium channel (human, UniProt Q12809); test: primary screen, population patch clamp on CHO cells stably expressing hERG
Sequence (Q12809 whole entry, looked up): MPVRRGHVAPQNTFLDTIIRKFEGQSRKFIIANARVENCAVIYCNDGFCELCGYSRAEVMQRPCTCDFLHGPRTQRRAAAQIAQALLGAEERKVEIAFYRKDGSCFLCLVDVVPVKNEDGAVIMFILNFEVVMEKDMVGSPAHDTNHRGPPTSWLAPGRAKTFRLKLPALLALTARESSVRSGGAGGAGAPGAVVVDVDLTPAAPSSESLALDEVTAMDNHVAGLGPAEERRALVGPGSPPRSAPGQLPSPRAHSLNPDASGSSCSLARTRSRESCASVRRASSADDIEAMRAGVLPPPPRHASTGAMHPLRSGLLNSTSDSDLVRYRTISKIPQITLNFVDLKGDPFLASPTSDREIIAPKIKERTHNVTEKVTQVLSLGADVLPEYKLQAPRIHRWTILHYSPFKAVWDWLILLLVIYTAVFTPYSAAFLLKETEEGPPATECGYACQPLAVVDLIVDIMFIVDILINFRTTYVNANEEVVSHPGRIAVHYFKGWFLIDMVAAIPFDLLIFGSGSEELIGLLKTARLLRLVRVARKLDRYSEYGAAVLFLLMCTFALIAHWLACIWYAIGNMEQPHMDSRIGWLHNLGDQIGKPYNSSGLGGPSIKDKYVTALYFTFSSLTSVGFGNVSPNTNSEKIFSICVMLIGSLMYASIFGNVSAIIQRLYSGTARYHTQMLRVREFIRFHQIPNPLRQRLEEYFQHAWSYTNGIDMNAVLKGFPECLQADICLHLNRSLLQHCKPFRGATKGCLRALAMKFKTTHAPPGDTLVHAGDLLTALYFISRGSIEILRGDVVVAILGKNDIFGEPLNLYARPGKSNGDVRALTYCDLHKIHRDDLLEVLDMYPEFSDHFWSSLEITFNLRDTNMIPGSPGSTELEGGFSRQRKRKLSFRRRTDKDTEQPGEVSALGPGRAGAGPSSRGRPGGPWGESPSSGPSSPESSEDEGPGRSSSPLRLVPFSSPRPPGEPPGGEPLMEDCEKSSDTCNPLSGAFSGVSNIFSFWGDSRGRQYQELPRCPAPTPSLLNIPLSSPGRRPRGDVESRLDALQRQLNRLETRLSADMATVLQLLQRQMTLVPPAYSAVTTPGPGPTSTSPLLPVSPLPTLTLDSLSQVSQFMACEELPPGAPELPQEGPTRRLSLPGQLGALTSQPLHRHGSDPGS

| SMILES | hERG current change (%, negative = inhibition) at 1uM [%] |
| --- | --- |
| COc1cc(OC)c2c(C)cc(=O)oc2c1C(CCN1CCN(c2ccccc2)CC1)c1ccc2c(c1)OCO2 (stereo not shown) | 9.26 |
| CC1=C(C)CC2C(=O)N(Cc3ccccc3)C(=O)C2C1 (stereo not shown) | 4.15 |
| O=C(Cc1ccccc1)NCc1ccc2c(c1)OCO2 | 0.915 |
| O=C(Nc1ccc2ccccc2n1)c1ccccc1 | 10.4 |
| COc1ccc(OCC(O)Cn2c(=N)n(CCN3CCOCC3)c3ccccc32)cc1.Cl (stereo not shown) | -10.5 |
| COc1ccc(Cn2c(SC)nc3ccccc32)cc1[N+](=O)[O-] | 17.2 |
| CCOC(=O)c1c(-c2ccc(C)o2)csc1NC(=S)NC(=O)c1ccc(F)cc1 | 11.3 |
| COC(=O)COc1ccc(C2NC(=O)NC(C)=C2C(=O)NCc2ccccc2)cc1OC (stereo not shown) | -3 |
| O=C(NCc1ccccc1)c1ccc(N2C(=O)C3CCCCC3C2=O)cc1 (stereo not shown) | 6.94 |
| COc1ccc(C(=O)N2CCN(C3CCN(Cc4ccccc4)CC3)CC2)cc1OC | -14.5 |
| O=C(/C=C/c1ccccc1)NCCSCc1ccccc1Cl | 12.6 |
| Cn1c(=O)c2c(nc(Oc3ccccc3N)n2C)n(C)c1=O | 26.6 |
| Cc1ccc(NC(=S)NCCc2ccc(S(N)(=O)=O)cc2)cc1C | 7.85 |
| COc1ccccc1NC(=O)C1=C(C)NC(=O)NC1c1ccccc1F (stereo not shown) | 6.77 |
| Cc1nc2nc(SCC(=O)NCCCN3CCCC(C)C3)nn2c(C)c1Cc1ccccc1Cl (stereo not shown) | 11.1 |
| N#C/C(=C\c1ccc(OCc2ccccc2)cc1)C(=O)Nc1ccc(C(=O)O)cc1 | 8.52 |
| CCOC(=O)C(CC)Sc1ccc2nnc(-c3cccnc3)n2n1 (stereo not shown) | -10.4 |
| CCOC(=O)N1CCN(C(=O)CCCn2c(=S)[nH]c3ccc(Br)cc3c2=O)CC1 | 1.98 |
| N#Cc1cc2c(nc1SCc1ccncc1)CCC2 | 1.23 |
| CCC(C)N(C(=O)COC(=O)CCc1c[nH]c2ccccc12)C1CCS(=O)(=O)C1 (stereo not shown) | 4.74 |
| CCCOc1ccc(S(=O)(=O)N2CCCC2)cc1[N+](=O)[O-] | 4.2 |
| N#Cc1ccccc1CSc1nc2ccsc2c(=O)n1Cc1ccccn1 | 8.27 |

| SMILES | hERG current change (%, negative = inhibition) at 1uM [%] |
| --- | --- |
| CC1CCCCC12NC(=O)N(CC(=O)NC1CCCc3ccccc31)C2=O (stereo not shown) | 13.6 |
| C=CCn1c(N2CCCC2)nc2c1c(=O)n(C)c(=O)n2C | 10 |
| CCCn1c(Nc2cccc(OC)c2)nc2ccccc21 | 11 |
| COCCCNc1nc2c(c(=O)[nH]c(=O)n2C)n1CC(O)COc1ccccc1C (stereo not shown) | -4.33 |
| CC(/C=C\C=C\c1ccccc1)=N\NC(=O)c1cncc(Br)c1 | 12.1 |
| CN(C)/C=C1/C=C(c2ccccc2)OC1=O | 7.64 |
| COc1cc(/C=C/c2nc3ccccc3c(=O)[nH]2)ccc1OC(F)F | 17.3 |
| CCCn1c(O)c(/C=C2\C=NN=C2c2ccccc2)sc1=S | 8.56 |
| O=C(CCCc1nc(-c2ccc(Cl)cc2)no1)NC1CCCCC1 | 18.4 |
| CCOC(=O)N1CCN(C(=O)c2ccccc2SCC(=O)NCC2CCCCC2)CC1 | -4.41 |
| O=C(CCc1nnc(-c2ccc(-c3ccccc3)cc2)o1)N1CCCCC1 | 7.16 |
| Cc1ccc(NC(=O)/C(=C\c2cccnc2)NC(=O)c2ccccc2)cc1 | -9.99 |
| O=C(/C=C/c1ccccc1)Nc1cccnc1Oc1ccccc1F | 10.7 |
| Cc1nc(CN(C)C(=O)c2cc(COc3c(F)cccc3F)on2)cs1 | 11.9 |
| O=C(C1CCN(S(=O)(=O)N2CCOCC2)CC1)N1CCOCC1 | -8.59 |
| Cc1cnn(-c2cc(Oc3ccccc3)ncn2)c1 | 5.29 |
| COCCCNC(=S)NC(=O)c1ccc([N+](=O)[O-])cc1 | 2.5 |
| CCc1cc(=O)oc2cc(OC(=O)c3ccco3)ccc12 | 10.4 |
| COc1cccc(N2CCN(S(=O)(=O)c3ccc4nc(-c5ccccc5)[nH]c4c3)CC2)c1 | 12.9 |
| CCC(=O)Nc1ccccc1C(=O)OCC(=O)Nc1ccc(S(N)(=O)=O)cc1 | -2.67 |
| CCN1/C(=C/C=C/C=C/C=C/c2sc3ccccc3[n+]2CC)Sc2ccccc21.[I-] | 7.57 |
